In the test the test system is mCMV. Conditions: mouse, in vivo.

SMILES strings stand for the structures.

Consider `CCCC(C(N)=O)C(C)CC` (stereo not shown) [SPD, 3-methyl-2-propylpentanamide], for which the increase of survival entry was “three-fold”.

The values above are taken from patent publication US20190125701A1 (priority 2016, published 2019).
